The record followed here is PMC4336329 (PLoS ONE, 2015).

The campaign covered roughly 310,000 compounds. About 14,000 (4.5%) showed an effect of 50% or more. The effect is printed as a negative number. Some of the results follow.
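Further: peak tail current of the secondary pulse compared with the same well before compound.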

This test deals with human ether-à-go-go-related gene (hERG) potassium channel (human, UniProt Q12809). Put plainly: primary screen, population patch clamp on CHO cells stably expressing hERG.
Sequence of human ether-à-go-go-related gene (hERG) potassium channel (Q12809 whole entry, looked up): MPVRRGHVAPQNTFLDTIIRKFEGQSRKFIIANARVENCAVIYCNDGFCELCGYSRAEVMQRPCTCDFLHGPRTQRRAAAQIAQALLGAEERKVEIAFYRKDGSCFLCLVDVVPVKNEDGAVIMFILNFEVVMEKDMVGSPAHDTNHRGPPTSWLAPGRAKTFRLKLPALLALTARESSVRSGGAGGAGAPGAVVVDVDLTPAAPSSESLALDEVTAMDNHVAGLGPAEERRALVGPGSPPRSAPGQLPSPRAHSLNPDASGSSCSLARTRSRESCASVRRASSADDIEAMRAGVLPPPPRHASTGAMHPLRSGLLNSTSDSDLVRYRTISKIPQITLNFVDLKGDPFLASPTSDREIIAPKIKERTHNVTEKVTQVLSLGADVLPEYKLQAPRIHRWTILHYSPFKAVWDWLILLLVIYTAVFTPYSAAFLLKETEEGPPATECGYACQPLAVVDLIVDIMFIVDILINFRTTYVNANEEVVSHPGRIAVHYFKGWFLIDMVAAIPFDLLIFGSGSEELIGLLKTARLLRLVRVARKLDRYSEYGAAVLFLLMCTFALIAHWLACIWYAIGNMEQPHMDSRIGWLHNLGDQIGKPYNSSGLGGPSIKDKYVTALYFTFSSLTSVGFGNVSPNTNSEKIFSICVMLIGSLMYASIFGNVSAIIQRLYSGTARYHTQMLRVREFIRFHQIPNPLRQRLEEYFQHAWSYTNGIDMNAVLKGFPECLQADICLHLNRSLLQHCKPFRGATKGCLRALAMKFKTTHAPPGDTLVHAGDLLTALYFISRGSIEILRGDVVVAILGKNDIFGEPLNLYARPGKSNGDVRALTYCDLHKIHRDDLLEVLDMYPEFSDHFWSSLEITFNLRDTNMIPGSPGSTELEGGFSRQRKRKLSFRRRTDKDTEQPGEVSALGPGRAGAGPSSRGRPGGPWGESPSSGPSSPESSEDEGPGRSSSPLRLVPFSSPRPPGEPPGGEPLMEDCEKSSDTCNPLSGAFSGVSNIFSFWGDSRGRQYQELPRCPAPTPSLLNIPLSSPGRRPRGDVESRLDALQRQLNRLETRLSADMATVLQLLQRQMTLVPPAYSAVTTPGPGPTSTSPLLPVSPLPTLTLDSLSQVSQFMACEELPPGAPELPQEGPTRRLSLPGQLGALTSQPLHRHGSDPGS
As for `Clc1ccc(/C=N/Nc2ncnc3ccccc23)cc1Cl`, the “hERG current change (%, negative = inhibition) at 10uM” value is -1.08%.
As to `Cc1ccc(Cl)c(OCC(=O)Nc2ccc3c(c2)OCCO3)c1`, the “hERG current change (%, negative = inhibition) at 10uM” value was 17.1%.
Consider `O=C(c1nn(-c2ccccc2)c(=O)c2ccccc12)N1CCN(c2ccccn2)CC1`, for which the “hERG current change (%, negative = inhibition) at 10uM” value is -16.5%.
Next, `CCOc1ccc(C(=O)NC2CC(=O)N(c3ccc4c(c3)OCCO4)C2)cc1` (stereo not shown): -10.1%; `NC(=O)c1ccsc1NC(=O)COC(=O)c1ccccc1NCc1ccco1`: -2.52%; `CCN(CC)CCC(=O)Nc1ccc2c(c1)N(C(=O)CN(CC)CC)c1ccccc1CC2.Cl.O`: -8.21%.
For the molecule `CC(=O)OCCN(CCCn1c(-c2ccncc2)nc2ccccc21)c1nc(CN2CCCCC2)cs1`, the “hERG current change (%, negative = inhibition) at 10uM” value was -58.5%.
On to `CSc1ccccc1NC(=O)c1cc(C(C)C)on1`, for which the “hERG current change (%, negative = inhibition) at 10uM” value came to 16.7%.
Next, `CCCCNC(=O)/C=C/c1ccc(S(=O)(=O)Nc2ccc(OC)cc2)cc1`: 3.52%; `CN1CCN(NC(=O)c2ccc(S(=O)(=O)N3CC4(C)CC3CC(C)(C)C4)cc2)CC1.Cl` (stereo not shown): -2.07%; `O=C(CNc1ccc(C(F)(F)F)cc1[N+](=O)[O-])OCC(=O)c1ccccc1`: -25.8%.
As to `COc1ccc2[nH]c(C)c(CCNC(=S)Nc3cccc(C)c3C)c2c1`, the “hERG current change (%, negative = inhibition) at 10uM” value is given as 15.9%.
For `COc1ccccc1N1CCN(C2CCCN(C(=O)CCC(=O)N(C)C)C2)CC1` (stereo not shown), the “hERG current change (%, negative = inhibition) at 10uM” value is given as -5.57%.
Consider `COc1ccc(-n2nc(C(=O)NCC(=O)NCCN(C)C)c3ccccc3c2=O)c(OC)c1`, for which the “hERG current change (%, negative = inhibition) at 10uM” value was found to be 15.9%.
In the case of `O=C(CSc1ccc2nnc(-c3ccccc3)n2n1)NCc1ccc2c(c1)OCO2`, the “hERG current change (%, negative = inhibition) at 10uM” value is given as -80.3%.
For `CCCc1cc(=O)n2[nH]c(NCc3ccccc3Cl)nc2n1`, the “hERG current change (%, negative = inhibition) at 10uM” value is listed as 4.53%.
`Cc1ccc(OCC(=O)NCCCNC(=O)c2ccc(C)nc2)cc1`: the “hERG current change (%, negative = inhibition) at 10uM” value was 23.7%.
On to `COc1ccc(CNCc2cc3c(cc2[N+](=O)[O-])OCO3)cc1.O=C(O)C(=O)O`, for which the “hERG current change (%, negative = inhibition) at 10uM” value is -40.8%.
Regarding `CC(C)C1NC(=S)N(C2CCCCC2)C1=O` (stereo not shown), the “hERG current change (%, negative = inhibition) at 10uM” value is recorded as -18%.
`CC(C)N(C(=S)NC1CC2CCC1C2)c1ccccc1` (stereo not shown): the “hERG current change (%, negative = inhibition) at 10uM” value is reported as 7.43%.
Next, `COc1ccc(C(C(=O)NCC2CCCO2)N(C(=O)CNC(=O)c2cccs2)c2ccc(NC(C)=O)cc2)cc1OC` (stereo not shown): 22.1%; `OCCN1CCN(c2nc(-c3ccccc3)nc3c2oc2ccccc23)CC1`: -6.34%.
Consider `CCOC(=O)N1CCC(=NNc2ccnc3cc(Cl)ccc23)CC1`, for which the “hERG current change (%, negative = inhibition) at 10uM” value was -32.5%.
Turning to `Cc1ccc(C(C(=O)NC2CCCCC2)N(Cc2ccco2)C(=O)Cc2c[nH]c3ccccc23)o1` (stereo not shown), the “hERG current change (%, negative = inhibition) at 10uM” value is on record as -40.5%.
As for `CCc1ccccc1NC(=O)CCS(=O)(=O)c1ccc(OC)cc1`, the “hERG current change (%, negative = inhibition) at 10uM” value is given as 7.48%.
To `CC1CCCCN1CC(=O)NCc1ccc2c(c1)OCO2` (stereo not shown) belongs -18.1%.
Next, `Cc1cc(C(=O)CSc2nnc(-c3ccc(F)cc3)o2)c(C)n1CC1CCCO1` (stereo not shown): -7.13%; `CCOc1ccc(NC(=O)c2ccc(CSc3nnnn3C)cc2)cc1`: -3.27%; `O=Cc1c(C(=O)O)n(Cc2ccc(Cl)cc2)c2ccccc12`: 13.6%.
Next, `O=C1NC[C@H](c2ccccc2)N(CC2CCCCC2)C1=O`: 4.59%.
In the case of `COc1ccc(N2C(=O)CC(NNc3ncc(Cl)cc3Cl)C2=O)cc1` (stereo not shown), the “hERG current change (%, negative = inhibition) at 10uM” value is on record as -31.9%.
Consider `Cc1ccc(CSCCNC(=O)/C=C/c2ccccc2Cl)cc1`, for which the “hERG current change (%, negative = inhibition) at 10uM” value is listed as 7.62%.
In the case of `O=C1CS/C(=N/N=C/c2c[nH]c3ccccc23)N1`, the “hERG current change (%, negative = inhibition) at 10uM” value is given as -13.2%.
Take `Cc1cc(C)c(C#N)c(SCC(=O)c2ccccc2)n1`: the “hERG current change (%, negative = inhibition) at 10uM” value is reported as -7.39%.
As for `CCCC(=O)n1nc(-c2ccco2)nc1SCc1ccccc1`, the “hERG current change (%, negative = inhibition) at 10uM” value stood at 0.232%.
Regarding `Cn1c(=O)[nH]c(=O)c2c1nc(CN1CCN(c3ccccc3F)CC1)n2CC(N)=O`, the “hERG current change (%, negative = inhibition) at 10uM” value was -4.28%.
Next, `CC(C)(C)c1ccc(-c2nnc(SCC(=O)NC3CC3)o2)cc1`: 2.04%; `Cn1c(=O)c2c(ncn2Cc2nnc(N)s2)n(C)c1=O`: 13.6%.
Turning to `COc1ccc(S(=O)(=O)N2CCN(C(=O)c3cc(C)on3)CC2)cc1`, the “hERG current change (%, negative = inhibition) at 10uM” value was -4.9%.
Next, `C=CCS(=O)(=O)N1CCCC(N2CCN(c3ccccc3OC)CC2)C1` (stereo not shown): 7.25%.
To `Cc1ccc2[nH]c(=O)c(CN(CCO)C(=O)NCc3ccccc3)cc2c1` belongs 7.55%.
With `COC(=O)c1cc(NC(=O)c2nccnc2C(=O)O)cc(C(=O)OC)c1`, the “hERG current change (%, negative = inhibition) at 10uM” value is reported as 13.8%.
Take `Cc1ccc(OCCN2C(=O)OC(C)(C)C2(C)O)cc1` (stereo not shown): the “hERG current change (%, negative = inhibition) at 10uM” value amounted to 6.68%.
For `COc1ccc(/C=C/C(=O)NC(=S)NNC(=O)c2cccnc2)cc1`, the “hERG current change (%, negative = inhibition) at 10uM” value amounted to 9.93%.
With `S=C(Nc1ccccc1)c1nc2ccccc2s1`, the “hERG current change (%, negative = inhibition) at 10uM” value is 5.99%.
Consider `COc1cc(OC)cc(C(=O)NCCC(c2ccccc2)c2ccccc2)c1`, for which the “hERG current change (%, negative = inhibition) at 10uM” value is -12.4%.
Take `COc1ccc(NC(=S)N(CCN2CCOCC2)Cc2cc3cc4c(cc3[nH]c2=O)OCCO4)cc1`: the “hERG current change (%, negative = inhibition) at 10uM” value is given as -7.45%.
Take `COc1ccc(C)cc1NC(=O)C(C)N(c1ccc(C)cc1)S(C)(=O)=O` (stereo not shown): the “hERG current change (%, negative = inhibition) at 10uM” value is listed as -21.7%.
Take `CCCCCc1nnc(NC(=O)c2ccc(=O)n(C)n2)s1`: the “hERG current change (%, negative = inhibition) at 10uM” value is given as -4.54%.
Consider `COC(C(=O)Nc1cccc([N+](=O)[O-])c1)c1ccccc1` (stereo not shown), for which the “hERG current change (%, negative = inhibition) at 10uM” value worked out at 1.56%.
As to `Cc1ccc(S(=O)(=O)N2CCN(C(=O)COC(=O)c3c(C)noc3C)CC2)c(C)c1`, the “hERG current change (%, negative = inhibition) at 10uM” value is -18.8%.
As for `COc1ccccc1N1CCN(C(=O)C2CCN(C(=O)c3ccccc3Cl)CC2)CC1`, the “hERG current change (%, negative = inhibition) at 10uM” value came out at 0.499%.
For the molecule `Cc1c(C(=O)Oc2cccc3cccnc23)oc2ccccc12`, the “hERG current change (%, negative = inhibition) at 10uM” value is on record as -4.01%.
Next, `CCC(=O)c1c[nH]c(C(=O)N2CCOCC2)c1`: 29.6%; `CC(=O)Nc1ccc(S(=O)(=O)NC2CC(=O)N(c3cccc(F)c3)C2)cc1` (stereo not shown): -3.52%; `Cc1cccc(-n2c(O)c(C=NCCCN3CCOCC3)c(=O)[nH]c2=O)c1C`: 6.85%.
With `Cc1ccc(NC(=O)C2CCN(S(=O)(=O)c3c(C)nn(C)c3C)CC2)c(Cl)c1`, the “hERG current change (%, negative = inhibition) at 10uM” value is on record as -20%.
On to `CCOC(=O)N1CCN(C(=O)CSc2nnc(CNC(=O)c3c(F)cccc3Cl)o2)CC1`, for which the “hERG current change (%, negative = inhibition) at 10uM” value was -2.64%.
For `Cc1[nH]nc(-c2ccc(O)cc2O)c1-c1nc2ccccc2s1.O=C(O)C(=O)O`, the “hERG current change (%, negative = inhibition) at 10uM” value was determined as 11.5%.
On to `Cc1ccc(S(=O)(=O)N2CCC(C(=O)C3C(=O)CCCC3=O)CC2)cc1`, for which the “hERG current change (%, negative = inhibition) at 10uM” value is listed as 10.6%.
As to `CCN(CC)c1ccc(C(=O)OCc2cc(=O)oc3cc(O)ccc23)cc1`, the “hERG current change (%, negative = inhibition) at 10uM” value amounted to 1.23%.
Next, `Cc1cc(NC(=O)CSc2nc3sc4c(c3c(=O)n2C)CCCC4)no1`: 7.47%; `CCNc1nc(N)nc(Oc2ccc(OCC)nn2)n1`: 4.35%; `O=C(O)c1ccc(COc2c(F)c(F)cc(F)c2F)cc1`: 7.2%.
As for `CC(C)(C)OC(=O)Cn1c(=O)cnc2ccccc21`, the “hERG current change (%, negative = inhibition) at 10uM” value is 10.9%.
As for `Nc1nnc(SCC(=O)Nc2cccc(S(N)(=O)=O)c2)s1`, the “hERG current change (%, negative = inhibition) at 10uM” value is given as 15.3%.
On to `O=C(CCSCCC(=O)N1CCCC1)N1CCCC1`, for which the “hERG current change (%, negative = inhibition) at 10uM” value was 23.7%.
For the molecule `Cc1cccc(CN2CCN(Cc3nc4c(s3)CCCC4)CC2CCO)n1` (stereo not shown), the “hERG current change (%, negative = inhibition) at 10uM” value is listed as -28.6%.
Take `Cc1ccc(-c2nn(CC(N)=O)c(=O)c3ccccc23)cc1S(=O)(=O)N(C)C`: the “hERG current change (%, negative = inhibition) at 10uM” value is reported as -19%.
With `Cc1cccc(N(C(=O)c2csnn2)C(C(=O)NC2CCCCC2)c2ccccn2)c1C` (stereo not shown), the “hERG current change (%, negative = inhibition) at 10uM” value is 11.4%.
Next, `O=C(c1ccc2c(c1)OCCO2)N1CCN(Cc2c(F)cccc2Cl)CC1`: -10.7%.
As for `Cc1c(NC(=O)OC(C)C)sc(=S)n1C`, the “hERG current change (%, negative = inhibition) at 10uM” value is on record as -0.457%.
Take `Cc1ccc(C(=O)N/C(=C\c2ccc(F)cc2)C(=O)NCCN2CCOCC2)cc1`: the “hERG current change (%, negative = inhibition) at 10uM” value is given as -75.6%.
In the case of `C=CCNC(=S)NNC(=O)CC12CC3CC(CC(C3)C1)C2`, the “hERG current change (%, negative = inhibition) at 10uM” value amounted to 16.9%.
Next, `COc1cc2c(C(=O)NCc3ccc(C)o3)cn(CC(C)C)c(=O)c2cc1OC`: -13.5%; `CCCN(CCC)CCCNC(=S)Nc1ccc2nc(N3CCCC3)cc(C)c2c1`: -60.4%.
As for `COCc1cc(OC(=O)N(C)C)nc(-c2ccc(C)c(Cl)c2)n1`, the “hERG current change (%, negative = inhibition) at 10uM” value is 14.7%.
In the case of `Cc1ccccc1-n1c(C)nnc1SCC(=O)N(C)C1CCS(=O)(=O)C1` (stereo not shown), the “hERG current change (%, negative = inhibition) at 10uM” value was 17.7%.
Take `COc1ncnc(NS(=O)(=O)c2ccc(N)cc2)c1OC`: the “hERG current change (%, negative = inhibition) at 10uM” value is on record as -12.2%.
As for `CCOC(=O)CSc1nc(-c2ccccc2)nc2ccc(F)cc12`, the “hERG current change (%, negative = inhibition) at 10uM” value is listed as 25%.
Consider `Cc1ccc(CN2CCN(Cc3cnn(-c4ccc(F)cc4)c3)CC2CCO)o1` (stereo not shown), for which the “hERG current change (%, negative = inhibition) at 10uM” value is recorded as -56.1%.
To `C=CCN1C(=O)CSc2ccc(C(=O)OCC)cc21` belongs -16.2%.
Turning to `COc1ccc(NC(=O)NCc2cccnc2)c(OC)c1`, the “hERG current change (%, negative = inhibition) at 10uM” value is 16.5%.
Next, `O=C(CCS(=O)(=O)c1cccs1)NC1CCCCCC1`: 1.63%; `Cc1nn(Cc2cccc(C(=O)NC(C)c3ccc(C(C)(C)C)cc3)c2)c(C)c1[N+](=O)[O-]` (stereo not shown): -6.38%.
With `CS(=O)(=O)Nc1cccc(C2=NN(C(=O)c3cccc([N+](=O)[O-])c3)C(c3cccs3)C2)c1` (stereo not shown), the “hERG current change (%, negative = inhibition) at 10uM” value was -13.4%.
As for `CC1(C)CC(=O)C2=C(C1)N(Cc1cccnc1)C(=O)C2(NC(=O)C1CC1)C(F)(F)F` (stereo not shown), the “hERG current change (%, negative = inhibition) at 10uM” value is listed as -2.59%.
To `CC(Oc1ccc(Cl)cc1Cl)C(=O)NCCN1CCOCC1` (stereo not shown) belongs -4.16%.
